# Experimental data published in PubChem BioAssay (Tox21).
# Several values for one entry are separate records, joined by “and”; a condition that tells them apart may be missing. Identical values can stand only once. Inconclusive results, whose numbers are uncertain, are shown with a selection of clear calls. For part of these data: Potencies beside an inconclusive call are fits to weak or partial responses and may not hold up. Activity calls are given as the source filed them. Unless noted, calls come from the whole dose curve; as a rule, active = well fitted curve in the direction sought with a large enough effect in the repeat runs; inconclusive = weak or mixed curves; inactive = no such curve, though single readings can be large; an effect the other way counts as inactive or inconclusive.
# Experiments:
# [1] = qHTS assay to identify small molecule antagonists of the estrogen related receptor (ERR) signaling pathway from Tox21 library - cell viability counter screen (AID 1224834); note: nearly all actives have a fitted effect of over 30% in size; note: potency is the fitted concentration of half-maximal effect; for viability change, negative = cytotoxic: % is set by controls: 0 for no effect and ±100 for the full control effect
# Procedure, shortened: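 ERR reporter cells, 2,000 per well, rested 6 h, then exposed to compound in DMSO for 17.5 hours at 37 C. Viability read as fluorescence after 30 min with CellTiter-Fluor.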
# [2] = qHTS assay to identify small molecule antagonists of the estrogen related receptor (ERR) signaling pathway (AID 1224819;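 note: luminescence from an ERR-driven luciferase reporter measured with One-Glo reagent; % is set by controls: 0 for no effect and ±100 for the full control effect; nearly all actives have a fitted effect of over 50% in size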)
# Procedure, shortened: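 ERR reporter cell line (NTP) plated at 2,000 cells/well, settled 6 h at 37C/5% CO2, then exposed to LOPAC compounds for 18 h at 37C. One-Glo luciferase luminescence read after 30 min at room temperature.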
# [3] = target: Nuclear receptor subfamily 1 group I member 3 (Homo sapiens) (UniProt Q14994); assay: qHTS assay to identify small molecule antagonists of the constitutive androstane receptor (CAR) signaling pathway (AID 1224838); note: potency is the fitted concentration of half-maximal effect; nearly all actives have a fitted effect of over 40% in size
# Chain of UniProt Q14994 (Q14994 whole entry, looked up): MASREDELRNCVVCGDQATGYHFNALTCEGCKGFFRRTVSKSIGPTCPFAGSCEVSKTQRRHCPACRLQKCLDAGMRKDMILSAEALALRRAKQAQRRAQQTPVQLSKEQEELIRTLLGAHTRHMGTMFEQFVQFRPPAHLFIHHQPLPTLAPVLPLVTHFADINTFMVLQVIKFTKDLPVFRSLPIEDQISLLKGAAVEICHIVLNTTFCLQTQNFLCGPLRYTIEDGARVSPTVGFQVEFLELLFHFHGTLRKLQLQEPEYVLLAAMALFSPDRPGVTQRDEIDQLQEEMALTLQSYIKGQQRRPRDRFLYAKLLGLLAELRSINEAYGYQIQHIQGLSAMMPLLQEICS
# Procedure, shortened: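 HepG2 cells stably carrying hCAR and a CYP2B6-2.2kb luciferase reporter, seeded 4 hrs before compound (15 concentrations). Stimulated with 50 nM CITCO for 24 hr at 37 C. ONE-Glo luminescence read after 30 min at room temperature.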
# [4] = qHTS assay to identify small molecule antagonists of the estrogen related receptor signaling pathway with the pleiotropic PPARgamma coactivator (PGC) from Tox21 10K library (AID 1224841; call rule not given here; note: potency is the fitted concentration of half-maximal effect; actives are mostly falling curves and most rising ones were filed inactive; nearly all actives have a fitted effect of over 50% in size)
# Procedure, shortened: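 PGC/ERR cell line, 2,000 cells/well, pre-incubated 6 hours at 37 C, then exposed to compounds for 18 hours at 37 C; luciferase read with One-Glo luminescence after 30 min at room temperature.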
# [5] = target: Thyrotropin receptor (Homo sapiens) (UniProt P16473); assay: qHTS assay to identify small molecule agonists of the thyroid stimulating hormone receptor (TSHR) signaling pathway (AID 1224843; calls by dose curve; note: nearly all actives have a fitted effect of over 45% in size; note: potency is the fitted concentration of half-maximal effect; for activation: % is set by controls: 0 for no effect and ±100 for the full control effect); conditions: TSHR-HEK293 cells, cAMP HTRF, agonist mode, 30 min; activation: at 92.4 µM (top of the series) unless noted
# Chain of UniProt P16473 (P16473 whole entry, looked up): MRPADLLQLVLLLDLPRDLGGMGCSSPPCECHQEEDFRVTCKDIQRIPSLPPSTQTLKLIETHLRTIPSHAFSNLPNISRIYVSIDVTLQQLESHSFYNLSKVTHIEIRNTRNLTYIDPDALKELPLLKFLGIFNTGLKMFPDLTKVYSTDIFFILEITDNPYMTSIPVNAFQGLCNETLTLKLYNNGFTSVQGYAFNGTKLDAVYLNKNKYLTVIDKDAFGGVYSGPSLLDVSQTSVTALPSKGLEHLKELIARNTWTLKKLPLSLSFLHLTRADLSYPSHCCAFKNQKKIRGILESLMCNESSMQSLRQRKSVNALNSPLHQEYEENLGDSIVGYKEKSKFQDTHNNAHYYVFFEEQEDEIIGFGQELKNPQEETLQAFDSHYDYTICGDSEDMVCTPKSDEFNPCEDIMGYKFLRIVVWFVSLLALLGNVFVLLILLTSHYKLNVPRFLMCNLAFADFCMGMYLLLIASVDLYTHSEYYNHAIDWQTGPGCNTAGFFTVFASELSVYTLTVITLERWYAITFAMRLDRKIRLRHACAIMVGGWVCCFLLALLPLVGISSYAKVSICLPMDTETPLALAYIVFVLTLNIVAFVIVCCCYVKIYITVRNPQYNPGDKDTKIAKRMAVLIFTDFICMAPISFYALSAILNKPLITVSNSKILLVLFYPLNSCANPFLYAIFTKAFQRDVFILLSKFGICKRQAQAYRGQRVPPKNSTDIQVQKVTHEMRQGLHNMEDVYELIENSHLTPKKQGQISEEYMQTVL
# Procedure, shortened: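 TSHR-HEK293 cells in agonist mode, 30 min room-temperature step, then cAMP measured by competitive HTRF (cAMP-d2 with anti-cAMP cryptate) after 1 h at room temperature. Tested at 15 concentrations in triplicate.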
# [6] = qHTS assay to identify small molecule agonists of the hypoxia (HIF-1) signaling pathway - cell viability counter screen (AID 1224844; calls by dose curve; note: potency is the fitted concentration of half-maximal effect; nearly all actives have a fitted effect of over 50% in size)
# Procedure, shortened: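 HRE-bla ME-180 cells, 2,000/well in 0.5% dialyzed FBS medium, treated 17 h at 37C with compounds. Viability read in the same wells as the bla reporter, by CellTiter-Glo luminescence after 30 min at room temperature.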
# [7] = qHTS assay to identify small molecule antagonists of the estrogen related receptor signaling pathway with the pleiotropic PPARgamma coactivator (PGC) from Tox21 10K library - cell viability counter screen (AID 1224840; active = well fitted cell-killing curve with a large enough effect in the repeat runs, not every such curve was filed as active; inconclusive = weak or mixed curves, or effect the other way; inactive = no such curve, though single readings can be large or run the other way; note: potency is the fitted concentration of half-maximal effect; nearly all actives have a fitted effect of over 40% in size)
# Procedure, shortened: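 PGC/ERR cells (2,000/well) plated 6 h, then compound-treated for 17.5 h at 37 C. Viability measured by CellTiter-Fluor fluorescence after 30 min at 37 C, multiplexed with the pathway assay.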
# [8] = tested on: estrogen-related receptor alpha (ERRalpha) with PGC-1alpha coactivator, human; assay: qHTS assay to identify small molecule antagonists of the estrogen related receptor signaling pathway with the pleiotropic PPARgamma coactivator (PGC) (AID 1224821; calls by dose curve; note: potency is the fitted concentration of half-maximal effect; nearly all actives have a fitted effect of over 50% in size)
# Procedure, shortened: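 Luminescent read-out (One-Glo, 30 min at room temperature) following 18 h treatment of PGC/ERR cells at 37 C with compounds delivered in DMSO. Cells had settled 6 h at 37 C/5% CO2 before dosing.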
# [9] = target: Luciferin 4-monooxygenase (Photinus pyralis) (UniProt P08659); assay: qHTS assay to identify small molecule inhibitors of firefly luciferase (AID 1224835); note: nearly all actives have a fitted effect of over 25% in size; note: potency is the fitted concentration of half-maximal effect
# Chain of UniProt P08659 (P08659 whole entry, looked up): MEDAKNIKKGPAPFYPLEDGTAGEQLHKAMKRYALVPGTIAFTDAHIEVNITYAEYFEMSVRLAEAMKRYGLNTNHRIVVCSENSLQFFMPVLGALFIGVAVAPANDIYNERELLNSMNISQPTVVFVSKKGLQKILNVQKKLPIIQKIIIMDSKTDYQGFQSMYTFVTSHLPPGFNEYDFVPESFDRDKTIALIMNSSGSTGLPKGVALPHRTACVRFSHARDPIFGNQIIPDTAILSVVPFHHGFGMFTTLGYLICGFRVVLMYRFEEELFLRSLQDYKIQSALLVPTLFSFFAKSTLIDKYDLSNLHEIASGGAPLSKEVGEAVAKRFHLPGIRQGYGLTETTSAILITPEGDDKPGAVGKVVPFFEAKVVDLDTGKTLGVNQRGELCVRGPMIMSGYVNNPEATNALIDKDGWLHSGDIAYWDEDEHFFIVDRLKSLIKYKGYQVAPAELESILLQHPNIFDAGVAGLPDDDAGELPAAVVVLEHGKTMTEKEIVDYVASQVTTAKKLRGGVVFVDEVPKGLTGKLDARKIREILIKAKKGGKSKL
# Procedure, shortened: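 Biochemical qHTS: compounds run as interplate titrations against purified firefly enzyme, with D-luciferin and ATP each at its KM concentration. Light output recorded by CCD imaging.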
# [10] = qHTS assay to identify small molecule antagonists of the constitutive androstane receptor (CAR) signaling pathway - cell viability counter screen (AID 1224837); note: potency is the fitted concentration of half-maximal effect; nearly all actives have a fitted effect of over 45% in size
# Procedure, shortened: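 HepG2 cells stably carrying hCAR and CYP2B6-2.2kb reporter, stimulated with 50 nM CITCO and compounds at 15 concentrations for 23 h at 37 C. Viability measured by CellTiter-Fluor fluorescence.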
# [11] = qHTS assay to identify small molecule agonists of the constitutive androstane receptor (CAR) signaling pathway - cell viability counter screen (AID 1224836); note: potency is the fitted concentration of half-maximal effect; nearly all actives have a fitted effect of over 45% in size
# Procedure, shortened: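 Cells were seeded and incubated 4 hrs. Compounds were added across 15 concentrations together with PK11195 at 0.75 uM final. Plates were incubated 23 hrs at 37 C. CellTiter-Fluor was added and fluorescence measured.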
# [12] = target: Nuclear receptor subfamily 1 group I member 3 (Homo sapiens) (UniProt Q14994); assay: qHTS assay to identify small molecule agonists of the constitutive androstane receptor (CAR) signaling pathway (AID 1224839); note: potency is the fitted concentration of half-maximal effect; nearly all actives have a fitted effect of over 15% in size
# Procedure, shortened: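 Cells were plated and incubated 4 hrs, then dosed with compounds at 15 concentrations. PK11195 was added to 0.75 uM final. After 24 hrs at 37 C, luciferase luminescence was measured.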
# [13] = qHTS assay to identify small molecule agonists of the estrogen related receptor signaling pathway with the pleiotropic PPARgamma coactivator (PGC) from Tox21 10K library (AID 1224842); note: potency is the fitted concentration of half-maximal effect; nearly all actives have a fitted effect of over 15% in size
# Procedure, shortened: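 PGC/ERR reporter cell line, 2,000 cells per well, incubated 6 h at 37 C before 23 nL compound in DMSO was added. After 18 h at 37 C, One-Glo luminescence read following 30 min at room temperature.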
# Tags give direction and shape of the fitted curve or compound fluorescence and quenching.
compound,measurement,setting,value
CCN1CCN(c2cc(-c3ccc(F)cc3)c3c(n2)CCCCCC3)CC1,"viability change, negative = cytotoxic",[1],inactive: 0.165% [at 19 µM]
CCCCC1=NC2(CCCC2)C(=O)N1Cc1ccc(-c2ccccc2-c2nn[nH]n2)cc1,Potency,[1],"inconclusive: 21.1 µM [cytotoxic, partial curve]"
CCCCC(CC)COC(=O)c1ccccc1C(=O)O (configuration not stated),Potency,[2],inactive
same,Potency,[3],"inconclusive: 4.94 µM [inhibitor, full curve]"
same,Potency,[4],"inconclusive: 27.8 µM [full curve, poor fit]"
same,activation,[5],inconclusive: 2.71%
same,Potency,[6],"inconclusive: 1.25 µM [cytotoxic, full curve]"
O=C1CC2(CCCC2)CC(=O)N1CCCCN1CCN(c2ncccn2)CC1,Potency,[1],"inconclusive: 61.1 µM [cytotoxic, partial curve]"
same,Potency,[3],"inconclusive: 61.1 µM [inhibitor, partial curve, poor fit]"
same,Potency,[7],"inconclusive: 30.6 µM [cytotoxic, partial curve]"
same,Potency,[5],inactive
C[C@]12CC[C@@H]3c4ccc(O)cc4C[C@@H](CCCCCCCCCS(=O)CCCC(F)(F)C(F)(F)F)[C@H]3[C@@H]1CC[C@@H]2O (some centres not stated),Potency,[8],inconclusive: 21.1 µM [inhibitor]
same,Potency,[1],"inconclusive: 6.11 µM [cytotoxic, full curve] and inconclusive: 4.52 µM [cytotoxic, full curve] and inconclusive: 8.41 µM [cytotoxic, full curve]"
same,Potency,[4],"inconclusive: 5.31 µM [falling, full curve]"
same,Potency,[6],"inconclusive: 19.5 µM [cytotoxic, partial curve, poor fit]"
COc1ccccc1N1CCN(CCCCNC(=O)c2ccc(-c3ccc(C(C)=O)cc3)cc2)CC1,Potency,[1],"inconclusive: 2.98 µM [cytotoxic, full curve]"
Cc1occc1SSc1ccoc1C,Potency,[1],"inconclusive: 68.6 µM [cytotoxic, single point]"
same,Potency,[3],"inconclusive: 68.6 µM [inhibitor, single point]"
same,Potency,[7],"inconclusive: 48.6 µM [cytotoxic, partial curve]"
same,Potency,[5],inactive
same,Potency,[6],"inconclusive: 54.9 µM [cytotoxic, single point]"
NCCO,Potency,[1],"inconclusive: 34.4 µM [rising, partial curve, poor fit]"
same,Potency,[9],inactive
same,Potency,[5],"inconclusive: 48.6 µM [activator, partial curve]"
CCCCC/C=C/C=C/C=O,Potency,[1],"inconclusive: 61.1 µM [cytotoxic, partial curve]"
same,Potency,[9],"inconclusive: 89.4 µM [inhibitor, partial curve, poor fit]"
same,Potency,[7],"inconclusive: 38.6 µM [cytotoxic, partial curve, poor fit]"
same,Potency,[6],"inconclusive: 61.2 µM [cytotoxic, partial curve, poor fit] and inconclusive: 54.9 µM [cytotoxic, single point]"
CCN(CC)CCOc1ccccc1C(=O)CCc1ccccc1,Potency,[1],"inconclusive: 29.8 µM [cytotoxic, single point]"
same,Potency,[10],"inconclusive: 29.8 µM [cytotoxic, partial curve, poor fit]"
same,Potency,[6],"inconclusive: 23.9 µM [cytotoxic, single point]"
CN1CC(=O)N2[C@H](c3ccc4c(c3)OCO4)c3[nH]c4ccccc4c3C[C@@H]2C1=O,Potency,[1],"inconclusive: 33.5 µM [cytotoxic, single point]"
O=[N+]([O-])c1ccc(Nc2ccc(Nc3ccccc3)c(S(=O)(=O)O)c2)c([N+](=O)[O-])c1,Potency,[1],"inconclusive: 54.5 µM [cytotoxic, partial curve]"
same,Potency,[11],"inconclusive: 61.1 µM [cytotoxic, partial curve, poor fit]"
O=C1OC2(c3ccc(O)cc3Oc3cc(O)ccc32)c2ccccc21,Potency,[1],"inconclusive: 30.6 µM [rising, partial curve] and inconclusive: 26.6 µM [rising, partial curve]"
same,Potency,[10],"inconclusive: 48.6 µM [rising, partial curve] and inconclusive: 10.6 µM [rising, partial curve]"
same,Potency,[7],"inconclusive: 30.6 µM [rising, partial curve] and inconclusive: 33.5 µM [rising, partial curve]"
CC(C)OC(=O)c1cc(C(=O)OC(C)C)cc([N+](=O)[O-])c1,Potency,[2],inactive
same,Potency,[9],"inconclusive: 91.5 µM [inhibitor, single point]"
same,Potency,[12],"inconclusive: 62.6 µM [activator, partial curve]"
same,Potency,[13],inconclusive: 24.9 µM [activator]
same,Potency,[5],active: 22.2 µM
